Results taken from the supplement of paper PMC3724861.
The list shows a part of the results.

test system: T1, Caupolican (Caup) homeodomain DNA-binding domain; assay: PBM E-score (8-mer, recovered from the published 9-mer minima) (E-score (dimensionless, -0.5 to 0.5)); Drosophila protein; higher = stronger relative binding preference, active = 0.31 or more
T1 sequence: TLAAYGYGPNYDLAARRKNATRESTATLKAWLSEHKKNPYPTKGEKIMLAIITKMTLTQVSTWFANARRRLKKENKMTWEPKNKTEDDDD
In short: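 An enrichment score, with higher meaning stronger, expresses relative binding preference for each short DNA word. The protein used was Caup's homeodomain DNA-binding domain (residues 214-303), produced by in vitro transcription and translation and tested at 100 nM on custom-designed protein binding microarrays. The 8-mer values were recovered from published 9-mer scores, each equal to the lower of its two constituent 8-mer scores.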

| Sequence | PBM E-score |
| --- | --- |
| GCACGTCA | inactive: -0.0132 |
| AGCCGGCA | inactive: -0.239 |
| ATGATTTG | inactive: 0.0797 |
| CATGTTAG | active: 0.408 |
| ACGCGTGC | inactive: 0.0045 |
| AGGGTGGG | inactive: -0.129 |
| ACCAAAGC | inactive: -0.116 |
| AGCCAACA | inactive: 0.055 |
| ATCTCAGG | inactive: -0.107 |
| AGAGCGAT | inactive: -0.0247 |
| GCATTGGC | inactive: -0.14 |
| TAGGCATA | inactive: -0.0088 |
| ACCCCTGC | inactive: -0.23 |
| GCAATGTA | inactive: 0.23 |
| CGAATTTA | inactive: 0.0927 |
| CACTTTGA | inactive: -0.0753 |
| GAGGGCCC | inactive: -0.294 |
| AAGCGCCT | inactive: -0.167 |
| CTGAGTTA | inactive: -0.0145 |
| AACCGCGG | inactive: -0.142 |
| GCCTGCCC | inactive: -0.257 |

| Sequence | PBM E-score |
| --- | --- |
| TATTATGA | inactive: 0.161 |
| TGGTACAA | active: 0.358 |
| ACTAATCC | inactive: 0.117 |
| CGGGAGGC | inactive: -0.33 |
| ATTGGATC | inactive: 0.0617 |
| GTCCGAGA | inactive: -0.00764 |
| ATATTCGC | inactive: 0.0752 |
| AAGGGGAT | inactive: -0.0483 |
| AAGAACAT | active: 0.357 |
| CAAAGTTG | inactive: 0.0254 |
| CACATCGA | inactive: 0.0459 |
| AGTCTTGG | inactive: 0.0554 |
| CATTGGCA | inactive: 0.0801 |
| GGCCAAAC | inactive: -0.106 |
| CGGCTAGC | inactive: -0.224 |
| TCCCCGCA | inactive: -0.2 |
| AACTCACT | inactive: -0.0511 |
| AGCGATAC | inactive: 0.0511 |
| CAGATAGG | inactive: -0.0313 |
| AAGTCGAT | inactive: -0.0278 |
| AAATCTCC | inactive: -0.164 |

| Sequence | PBM E-score |
| --- | --- |
| CAGAAAAG | inactive: 0.0295 |
| CTGAATAC | inactive: 0.12 |
| TCATGCAA | inactive: 0.146 |
| CCACACTA | inactive: 0.0174 |
| CCTATGTC | inactive: 0.176 |
| AGCCCCAA | inactive: -0.246 |
| ACTCATCT | inactive: 0.0808 |
| GATACCCC | inactive: -0.113 |
| CAATTCGG | inactive: 0.014 |
| CTGGAGAA | inactive: -0.12 |
| AATCCAGC | inactive: -0.0594 |
| CCCCCTAG | inactive: -0.359 |
| AACTGTTC | inactive: 0.0453 |
| ACGCGCAG | inactive: -0.193 |
| GAAATCGC | inactive: -0.0881 |
| ACGCGCCT | inactive: -0.159 |
| GTGCGGGA | inactive: -0.0919 |
| CAAATAAA | inactive: 0.108 |
| AAGCGGTG | inactive: -0.108 |
